56 sequences from the supplement of paper PMC7726561 can be followed below.

In all, about 1,100 sequences were measured (“thermal melting temperature (Tm) of peptide-HLA complex”: median about 58, lowest 2% from about 42 on). The list shows a part of the results.
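Further: cell lysates heated 10 min at 37–73 °C, remaining pHLA pulled down with pan-class I antibody, peptides quantified by DIA-MS versus 37 °C, Tm where half the complex is lost.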

The experiment has as its target HLA-A*02:01. Put plainly: thermal melting temperature (Tm) of peptide-HLA complex; higher = more thermostable pHLA complex. Conditions: C1R-A*02:01.
As to VLGTSNFKV, the thermal melting temperature worked out at 58 °C.
The figure for VIAEILRGV is 58.8 °C; for GLLQINDKIAL it is 41.7 °C.
The figure for LLPSVRQEV is 51.6 °C.
Then TLLKDAAKV, with 53.6 °C; and GLDRLNVTV, with 59.5 °C; and ALSKEGIVAL, with 59.5 °C.
VILDPVHSV returned a thermal melting temperature of 58.3 °C.
For the sequence RLFSSIVTV, the thermal melting temperature came out at 63.8 °C.
Then SQLDISDPYKV, with 55.4 °C; and FLLGPRLVLA, with 58.6 °C; and ALNIATHVL, with 54 °C.
The figure for GLHGWAFTL is 57 °C; for RVLPPSALQSV it is 63.4 °C.
The figure for ILDEAIYKV is 61.4 °C.
As to NLYEEWTQV, the thermal melting temperature is 59.9 °C.
Then NMVAKVDEV, with 55.1 °C.
The figure for RLGEAEGLMKV is 56.4 °C; for QLIDKVWQL it is 64.6 °C.
The figure for GQSELASRLTL is 55 °C; for SLIKQIPRI it is 56.5 °C.
For GLTSTDLLFHL, the thermal melting temperature was 60.9 °C.
The figure for NIVEKLREV is 57.9 °C; for ALVQDLAKA it is 64.6 °C; for GLLRDEALAEV it is 64.5 °C.
The figure for GLDIEGVKTV is 53.6 °C; for ALMDEVVKA it is 59.6 °C.
Then RLIDLPGTEL, with 55.6 °C; and KLFPDTPLAL, with 47.6 °C.
The sequence LMDHTIPEV registered a thermal melting temperature of 60.3 °C.
Take RLFNDPVAMV: the thermal melting temperature stood at 58 °C.
Then GLFPTSHSV, with 58.9 °C; and ALSSSSIRV, with 44.3 °C.
Then YLSKIIPAL, with 63.8 °C; and GMDRYLIYV, with 60.9 °C; and QLMPLPVKV, with 53.2 °C.
Turning to ATDPTIHTV, the thermal melting temperature is 47.1 °C.
Then SLLQTLYKV, with 63.6 °C; and AATEIVERV, with 53.2 °C.
Then GLLSIFTKV, with 59.5 °C; and QLSPRLLEV, with 59.4 °C; and NLYPFVKTV, with 59.3 °C.
Then GIMKKAYEL, with 59.4 °C.
Sequence GLLDNPELRV showed a thermal melting temperature of 56.3 °C.
The figure for FLFEPVVKA is 61.5 °C; for LLVDVEPKV it is 55.5 °C; for KLNPQQFEV it is 61.7 °C.
SVYSRVIQV yielded a thermal melting temperature of 57.1 °C.
The figure for KVLGIVVGV is 61 °C; for ALADGVQKV it is 63 °C.
Then NLLPKLHIV, with 61.2 °C; and HLIEPLANA, with 58.4 °C.
YMAELIERL yielded a thermal melting temperature of 59.1 °C.
Then QLLSEITRV, with 59.3 °C.
Then SLSQHNDFL, with 56.1 °C.
Then GLDVDGIYRV, with 54.8 °C.
